# Reference: patent US11186577B2, “Vasopressin receptor antagonists and products and methods related thereto” (BlackThorn Therapeutics, Inc., priority 2017, dated 2021)
# For at least one compound, name, drawing or mass did not settle the structure.
# Key:
# MDR1-MDCK cells = assay: MDR1-MDCK effective efflux assay (Transwell, 10 μM, 1 hour), MDR1-MDCK cells; assay type: in vitro ADME; design: scale not given here; conditions: for MDR1 EER: Effective efflux ratio = ER(MDR1-MDCK)/ER(wild-type MDCK); for MDR1 ER: Efflux ratio Papp B>A/Papp A>B, MDR1-MDCK cells
# Protocol: (§1) The MDR1-MDCK effective efflux assay was performed as described in the BioFocus Standard Operating Procedure, ADME-SOP-56. Both wild-type (WT) and MDR1-MDCK cells (Solvo Biotechnology) were seeded onto 24-well Transwell plates at 2.35×10^5 cells per well and used in confluent monolayers after a 3 day culture at 37° C. under 5% CO2. For both cell types, test and control compounds (propranolol, vinblastine) were added (10 μM, 0.1% DMSO final, n=2) to donor compartments of the Transwell plate assembly in assay buffer (Hanks balanced salt solution supplemented with 25 mM HEPES, adjusted to pH 7.4) for both apical to basolateral (A>B) and basolateral to apical (B>A) measurements. Incubations were performed at 37° C., with samples removed from both donor and acceptor chambers at T=0 and 1 hour and compound analysed by mass spectrometry (LC-MS/MS) including an analytical internal standard.
# (§2) Where V is the volume of each Transwell compartment (apical 125 basolateral 600 and concentrations are the relative MS responses for compound (normalized to internal standard) in the donor chamber before incubation and acceptor chamber at the end of the incubation. Area=area of cells exposed for drug transfer (0.33 cm2).
# (§3) Efflux ratios (Papp B>A/Papp A>B) were calculated for each compound from the mean Papp values in each direction for both wild-type and MDR1-MDCK cells.
# (§4) In order to confirm the involvement of MDR1 in any efflux seen, an “effective efflux ratio” (EER) was calculated by comparing compound efflux ratios (ER) in the two cell types, i.e. EER=ER(MDR1−MDCK)/ER(wild-type MDCK)
# (§5) This ratio illustrates the effect of the over-expressed MDR1 normalised for the background movement of compound through the wild-type cells.
# (§6) Lucifer Yellow (LY) was added to the apical buffer in all wells to assess viability of the cell layer. Compound recovery from the wells was determined from MS responses (normalized to internal standard) in donor and acceptor chambers at the end of incubation compared to response in the donor chamber pre-incubation.
# [1] = system: wild-type (WT) MDCK cells; assay: MDR1-MDCK effective efflux assay (Transwell, 10 μM, 1 hour), wild-type MDCK cells; assay type: in vitro ADME; design: scale not given here; conditions: Efflux ratio Papp B>A/Papp A>B
# Protocol: as §1, §2, §3, §4, §5, §6
Structure (SMILES),MDR1 EER (MDR1-MDCK cells),MDR1 ER (MDR1-MDCK cells),WT ER [1]
"COC(=O)N1Cc2cc(Cl)ccc2-n2c(C3CC4(C3)CN(c3ccc(F)cn3)C4)nnc2C1C (single isomer, unassigned) [142A]",++,++,++++
"CC(C)OC(=O)N1Cc2cc(Cl)ccc2-n2c(C3CC4(C3)CN(c3ccc(F)cn3)C4)nnc2C1C (single isomer, unassigned) [Cpd 163A]",+++,+++,++++
"COC(=O)N1Cc2cc(Cl)ccc2-n2c(C3CC4(C3)CN(c3cnccn3)C4)nnc2C1C (single isomer, unassigned) [Cpd 165A]",+,+,+++
"COC(=O)N1Cc2cc(Cl)ccc2-n2c(C3CC4(C3)CN(c3ncccn3)C4)nnc2C1C (single isomer, unassigned) [Cpd 166A]",+,+,+++
"CC(C)OC(=O)N1Cc2cc(Cl)ccc2-n2c(C3CC4(C3)CN(c3ncccn3)C4)nnc2C1C (single isomer, unassigned) [Cpd 167A]",–,++++,++++
"CCOC(=O)N1Cc2cc(Cl)ccc2-n2c(C3CC4(C3)CN(c3ncccn3)C4)nnc2C1C (single isomer, unassigned) [Cpd 168A]",–,++++,++++
"CCOC(=O)N1Cc2cc(Cl)ccc2-n2c(C3CC4(C3)CN(c3ccc(F)cn3)C4)nnc2C1C (single isomer, unassigned) [Cpd 169A]",–,++++,++++
"CC1c2nnc(C3CC4(C3)CN(c3ncccn3)C4)n2-c2ccc(Cl)cc2CN1C(=O)OC1CC1 (single isomer, unassigned) [Cpd 171A]",+,+,+++
"CCOC(=O)N1Cc2cc(Cl)ccc2-n2c(C3CC4(C3)CN(c3ncc(F)cn3)C4)nnc2C1C (single isomer, unassigned) [Cpd 172A]",++,++,+++
"CC1c2nnc(C3CC4(C3)CN(c3ccc(F)cn3)C4)n2-c2ccc(Cl)cc2CN1C(=O)C1(F)CC1 (single isomer, unassigned) [Cpd 174A]",+++,+++,++++
"CC1c2nnc(C3CC4(C3)CN(c3ccc(F)cn3)C4)n2-c2ccc(Cl)cc2CN1C(=O)C(C)(C)F (single isomer, unassigned) [Cpd 178A]",–,++++,++++
"CC1c2nnc(C3CC4(C3)CN(c3ccccn3)C4)n2-c2ccc(Cl)cc2CN1C(=O)C1(F)CC1 (single isomer, unassigned) [Cpd 181A]",++,++++,++++
"COC(=O)N1Cc2cc(Cl)ccc2-n2c(C3CC4(C3)CN(c3ccncn3)C4)nnc2C1C (single isomer, unassigned) [Cpd 184A]",+,+,++++
"CC1c2nnc(C3CC4(C3)CN(c3ccc(F)cn3)C4)n2-c2ccc(Cl)cc2CN1C(=O)OC1CC1 (single isomer, unassigned) [Cpd 191A]",+++,+++,+++
"CC1c2nnc(C3CC4(C3)CN(c3ncc(F)cn3)C4)n2-c2ccc(Cl)cc2CN1C(=O)OC1CC1 (single isomer, unassigned) [Cpd 192A]",++,++,++++
"CC1c2nnc(C3CC4(C3)CN(c3ncc(F)cn3)C4)n2-c2ccc(Cl)cc2CN1C(=O)OC(CF)CF (single isomer, unassigned) [Cpd 194A]",+,+,+++
"CC(C)OC(=O)N1Cc2cc(Cl)ccc2-n2c(C3CC4(C3)CN(c3ncc(F)cn3)C4)nnc2C1C (single isomer, unassigned) [Cpd 201A]",+++,+++,++++
"CC1c2nnc(C3CC4(C3)CN(c3ncccn3)C4)n2-c2ccc(Cl)cc2CN1C(=O)OC(CF)CF (single isomer, unassigned) [Cpd 202A]",+,+,+++
"CC1c2nnc(C3CC4(C3)CN(c3ncccn3)C4)n2-c2ccc(Cl)cc2CN1C(=O)OC(CF)CF (single isomer, unassigned) [Cpd 202B]",+,+,+++
